Laboratory results taken from PubChem BioAssay AID1508642 (National Center for Advancing Translational Sciences (NCATS), 2021).
Screen size: about 43,000 compounds; about 200 (0.47%) were called active. Not shown: some 12% with an inconclusive outcome. The call rests on the fitted dose curve; in most records, active means well fitted cell-killing curve with a large enough effect; inconclusive means small, poorly fitted or top-dose-only effect, or effect the other way; inactive means flat fitted curve, though single readings scatter. The list shows a part of the results.

Assay: Cell viability qHTS assay in S16 Pmp22-F2sN cells; further: nearly all actives have a fitted effect of over 65% in size
Settings: S16 Pmp22-F2sN Schwann cells viability, CellTiter-Glo, 24 h; series mostly up to 57.5 µM; activity change, negative = cytotoxicity: at the top concentration
Method in brief: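 Used to flag compounds lowering reporter output through toxicity, this quantitative HTS measures ATP-based CellTiter-Glo luminescence in S16 Pmp22-F2sN Schwann cells after 24 h compound exposure at 37C.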
On the % scale 0 is the no-effect control and ±100 the full control effect.

SMILES	activity change, negative = cytotoxicity
CC(C)c1ccc(CNC(=O)c2ccc(N3CCCC3)c(NC(=O)NCc3ccc(F)cc3)c2)cc1	inactive: -0.822%
COC(=O)c1c(SCC(=O)Nc2ccccc2C(F)(F)F)[nH]c2ccc(Cl)cc2c1=O	inactive: 14.1%
CCOC(=O)C1CCN(C(c2ccc(C)cc2)c2sc3nc(-c4ccco4)nn3c2O)CC1 (stereo unspecified)	inactive: 2.33%
CCOc1ccc(/C=C(\C#N)C(=O)Nc2sc3c(c2C(=O)OC)CCC3)cc1OC	inactive: 1.48%
COc1ccc(-c2cc(C(F)(F)F)nc(SCCC(=O)Nc3ccc(F)cc3F)n2)cc1	inactive: 18.4%
CCOCCCNC(=O)CN1C(=O)COc2ccc(S(=O)(=O)N3CCOCC3)cc21	inactive: 0.731%
O=C(CSc1ccc2nc(-c3ccccc3)cn2n1)Nc1ccccc1	inactive: 3.37%
O=C(Nc1ccc(F)cc1F)c1ccc(-n2cnc3cccnc32)cc1	inactive: -8.59%
CC(=O)c1ccc(NC(=O)CSc2nnc3c(n2)[nH]c2ccccc23)cc1	inactive: -29.2%
CC(=O)c1ccc(NC(=O)CSc2nccn2C2CCCC2)cc1	inactive: -8.44%
Cc1cccc(N2CCN(c3ccc4cc(S(=O)(=O)N5CCC(C)CC5)ccc4n3)CC2C)c1 (stereo unspecified)	inactive: -0.808%
Cc1nn(-c2cccc(Cl)c2)c2nc(-c3cccnc3)cc(C(F)(F)F)c12	inactive: 5.58%
CCOc1ccc(NC(=O)CSc2nc3ccccc3nc2N2CCOCC2)cc1	inactive: -0.624%
COc1ccc(CNC(=O)c2cc3cccc4c3n2CC(C)S4)cc1 (stereo unspecified)	inactive: -4%
O=c1c(N2CCN(c3ccc(F)cc3)CC2)csc2ccc(F)cc12	inactive: -5.03%
COc1ccc(S(=O)(=O)NC(C)(C)CO)cc1-c1nnc2c3ccccc3c(C)nn12	inactive: -0.956%
CC(C)CC(=O)Nc1cccc(-c2cn3cccnc3n2)c1	inactive: -3.81%
CCCn1c(=O)c2sccc2n2c(CCCC(=O)N3CCN(c4ccc(OC)cc4)CC3)nnc12	inactive: -27.9%
CN(C)c1ccc(NC(=O)CC(NCc2cccnc2)C(=O)O)cc1 (stereo unspecified)	inactive: 11.3%
Cc1ccccc1NC(=O)c1sc2nc3n(c(=O)c2c1C)N=C(c1ccccc1)CS3	inactive: 10.7%
COc1ccc(C)cc1NC1(c2ccccc2)C(=O)c2ccccc2C1=O	inactive: 2.96%

SMILES	activity change, negative = cytotoxicity
COc1ccc(OC)c(N(C)S(=O)(=O)c2ccc3c(c2)NC(=O)CC(=O)N3)c1	inactive: -11.4%
Cc1ccc(NC(=O)CCCn2c(=O)c3cccn3c3cccnc32)c(C)c1	inactive: 5.55%
COc1cccc(CNc2sc3c(c2C(=O)Nc2ccc(OC)cc2OC)CCC3)c1	inactive: -7.87%
CCC(Sc1nc2nccnc2c(=O)n1Cc1ccc(Cl)cc1)C(=O)NC1CCCCC1 (stereo unspecified)	inactive: -11.2%
O=c1c(-c2cc(-c3ccccc3)nc3c2COc2ccc(Cl)cc2-3)coc2ccccc12	inactive: 23.4%
Cc1ccc(-n2ccn(CC(=O)c3ccc(F)cc3)c(=O)c2=O)cc1C	inactive: 3.35%
CC(=O)N1CCCc2cc(S(=O)(=O)Nc3ccc(OC(F)(F)F)cc3)ccc21	inactive: -1.14%
Cc1cccc(C)c1NC(=O)c1cc(S(=O)(=O)N2CCCc3ccccc32)ccc1F	inactive: -20.6%
COc1cccc(C(=O)NCCc2sc(-c3cccc(C)c3)nc2C)c1	inactive: 1.16%
Cc1ccc2c(CC(=O)Nc3c(C(=O)c4ccc(F)cc4)oc4ccccc34)coc2c1C	inactive: 7.47%
CC(C)c1ccc(NC(=O)C(Cc2ccccc2)n2cccc2)cc1 (stereo unspecified)	inactive: -17%
Cc1ccc(C)c(S(=O)(=O)c2cn(Cc3ccccc3)c3cc(N4CCCC4)c(F)cc3c2=O)c1	inactive: 8.72%
CCOc1ccc(NC(=O)Cn2c(=O)n(CC(=O)NCCc3ccccc3)c(=O)c3sccc32)cc1	inactive: -6.98%
COc1ccc2c(CNCCc3ccco3)c(C(=O)O)n(Cc3ccc(F)cc3)c2c1	inactive: 1.55%
CC(=O)Nc1nonc1-c1nnc(SCC(=O)Nc2c(C)cccc2C)n1-c1ccccc1	inactive: 0.199%
CCn1cc(C(=O)NCc2ccc(Cl)cc2)c(=O)c2cc(S(=O)(=O)N3CCc4ccccc4C3)ccc21	inactive: 0.691%
COc1cccc(NC(=O)c2oc3ccccc3c2NC(=O)c2ccc(OC(C)C)cc2)c1	inactive: -13.8%
COCC(C)NS(=O)(=O)c1ccc(N2CCCCS2(=O)=O)cc1 (stereo unspecified)	inactive: -1.22%
COc1cc(Cl)c(C)cc1NC(=O)CCn1cnc2onc(-c3ccc(F)cc3)c2c1=O	inactive: -10.5%
CCOC(=O)c1ccc(NC(=O)c2sc3nc4n(c(=O)c3c2C)CCC4)cc1	inactive: -4.17%
CCN1C(C(=O)c2ccccc2)=C(NC(=O)c2ccc(Cl)cc2)c2ccccc2S1(=O)=O	inactive: -18.7%

SMILES	activity change, negative = cytotoxicity
Cc1ccc(C(=O)CSc2nc(-c3ccccc3)nc3c2CCCC3)cc1C	inactive: 5.16%
CCCN(CCC)c1cc(C)nc2nc(-c3ccc(Cl)cc3)nn12	inactive: 18.9%
Cc1nc2nc(NC(=O)C(C)C)[nH]n2c(=O)c1Cc1ccccc1	inactive: 14.9%
Cc1ccc(Nc2nc(C(N)=O)c(NC(=O)c3ccccc3Br)s2)cc1	inactive: -10.5%
CC1=C(C(=O)Nc2ccc(C)cc2C)C(c2cccs2)n2nc(SCc3ccc(Cl)cc3)nc2N1 (stereo unspecified)	inactive: -0.418%
COc1ccc(-c2csc3ncnc(Nc4cccc(F)c4)c23)cc1	inactive: -20%
Cc1cc(Oc2nc3ccccn3c(=O)c2/C=C(\C#N)c2nc3ccccc3s2)ccc1Cl	inactive: 1.19%
Cc1ccc2c(c1)c1c(c(=O)n(-c3ccccc3C)c(=O)n1Cc1cccc(F)c1)n2C	inactive: 1.07%
Cc1ccc(Cl)cc1NC(=O)C(NS(=O)(=O)c1ccc2c(c1)CCC(=O)N2)c1ccccc1 (stereo unspecified)	inactive: 5.71%
Cc1ccccc1C(=O)NC(=O)Nc1ccc(-n2nc(C(F)(F)F)cc2C(F)(F)F)cc1	inactive: 1.33%
COc1cccc(CNC(=O)CCn2c(=O)c3cccn3c3cccnc32)c1	inactive: -3.51%
COc1ccc2cc(CNc3ccccc3)c(=O)n(CC(=O)Nc3ccc(C(C)=O)cc3)c2c1	inactive: -1.35%
COc1ccc(-c2cn3nc(N4CCCC(C(=O)NCCCOC(C)C)C4)sc3n2)cc1 (stereo unspecified)	inactive: -0.571%
CCC(=O)N1CCc2cc(S(=O)(=O)NC(Cc3ccccc3)C(=O)NCc3cccc(OC)c3)ccc21 (stereo unspecified)	inactive: 4.09%
Cc1cccc(NC(=O)CC2C(=O)OCCN2Cc2ccccc2)c1 (stereo unspecified)	inactive: -25.5%
CC1=C(c2ccc(F)cc2)S(=O)(=O)NC1=NCc1ccccc1Cl	inactive: 4.67%
CC(C)(C)C(=O)Nc1ccc2nc(SCc3ccccc3)sc2c1	inactive: -25.2%
COc1ccc(C(=O)Cn2c(=O)n3nc(CCn4nc(C)cc4C)nc3c3cc(OC)c(OC)cc32)cc1	inactive: 14.3%
COc1ccc(S(=O)(=O)Nc2c(C)n(C)n(-c3ccccc3)c2=O)cc1Br	inactive: 1.61%
